Measurements as given in article PMC4336329 (PLoS ONE, 2015).
Out of some 310,000 compounds screened, about 2,200 (0.71%) showed an effect of 50% or more. The effect is printed as a negative number. The list shows a part of the results.

Molecular target: human ether-à-go-go-related gene (hERG) potassium channel (human, UniProt Q12809)
Test: primary screen, population patch clamp on CHO cells stably expressing hERG

Sequence of human ether-à-go-go-related gene (hERG) potassium channel (Q12809 whole entry, looked up): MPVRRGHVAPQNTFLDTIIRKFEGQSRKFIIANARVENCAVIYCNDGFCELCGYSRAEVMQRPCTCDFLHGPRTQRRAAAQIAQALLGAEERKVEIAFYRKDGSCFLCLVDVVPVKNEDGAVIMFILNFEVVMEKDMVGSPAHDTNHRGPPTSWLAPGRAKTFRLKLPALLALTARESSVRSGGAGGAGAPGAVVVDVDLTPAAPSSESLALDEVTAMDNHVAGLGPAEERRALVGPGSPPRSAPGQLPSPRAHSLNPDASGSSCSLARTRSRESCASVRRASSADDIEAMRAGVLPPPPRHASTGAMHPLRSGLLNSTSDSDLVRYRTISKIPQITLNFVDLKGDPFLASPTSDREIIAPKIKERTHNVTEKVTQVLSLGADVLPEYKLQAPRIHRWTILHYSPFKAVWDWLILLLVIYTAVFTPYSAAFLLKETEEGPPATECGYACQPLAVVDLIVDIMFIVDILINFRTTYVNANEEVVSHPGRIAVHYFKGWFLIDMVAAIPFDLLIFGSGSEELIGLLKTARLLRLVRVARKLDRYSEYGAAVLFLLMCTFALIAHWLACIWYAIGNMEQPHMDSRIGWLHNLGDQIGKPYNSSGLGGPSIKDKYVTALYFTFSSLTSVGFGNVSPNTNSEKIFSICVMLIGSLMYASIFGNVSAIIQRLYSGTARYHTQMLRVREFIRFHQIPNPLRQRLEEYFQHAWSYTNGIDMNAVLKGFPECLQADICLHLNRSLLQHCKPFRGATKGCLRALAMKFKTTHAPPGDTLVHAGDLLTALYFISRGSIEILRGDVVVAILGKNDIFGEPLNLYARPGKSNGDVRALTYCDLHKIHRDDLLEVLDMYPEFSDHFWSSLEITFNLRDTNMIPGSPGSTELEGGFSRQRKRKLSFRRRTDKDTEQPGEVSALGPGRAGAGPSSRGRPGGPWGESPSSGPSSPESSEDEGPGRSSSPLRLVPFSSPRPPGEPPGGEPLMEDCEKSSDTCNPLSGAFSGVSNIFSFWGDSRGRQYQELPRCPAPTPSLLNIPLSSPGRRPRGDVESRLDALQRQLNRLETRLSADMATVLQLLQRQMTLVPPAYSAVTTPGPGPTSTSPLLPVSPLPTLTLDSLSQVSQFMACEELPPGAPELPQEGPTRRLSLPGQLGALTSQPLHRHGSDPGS

Row | SMILES | hERG current change (%, negative = inhibition) at 1uM [%]
1 | CCOC(=O)CC(=O)CSc1nc2c(C)c(C)ccc2cc1C | -1.22
2 | CCOC(=O)NN1C(=O)c2ccccc2NC1c1cccc(O)c1 (stereo not drawn) | 0.0873
3 | O=C(O)C1CCCCC1C(=O)NCCc1ccncc1 (stereo not drawn) | 6.57
4 | O=C(NCC(c1ccco1)N1CCN(c2ccc(F)cc2)CC1)C(=O)NC1CCCCC1 (stereo not drawn) | 1.79
5 | Cc1cc2oc(=O)cc(CN3CCN(S(=O)(=O)c4ccc5c(c4)OCCO5)CC3)c2cc1C | 7.87
6 | COc1cc(C2C(C#N)=C(N)OC3=C2C(=O)CC(C)(C)C3)cc2c1OCO2 (stereo not drawn) | 3.54
7 | Cc1cc(C(=O)NC2CCCCCCC2)ccc1[N+](=O)[O-] | 13.3
8 | COc1ccccc1N1CCN(C(=O)c2cc3sccc3n2C)CC1 | 6.31
9 | COc1ccc(/C=C/C(=O)NC(=S)NNC(=O)Cc2cccs2)cc1 | -8.26
10 | CCOc1ccccc1NC(=O)C1=C(C)NC(=O)NC1c1cccs1 (stereo not drawn) | 22
11 | CCC(C#CCN1CCCCC1)(CC)OCCC#N | 5.22
12 | O=C(NCc1ccccc1F)C1CCCN(S(=O)(=O)N2CCOCC2)C1 (stereo not drawn) | 28.8
13 | CC(=O)c1ccc(NCC(=O)N2CCN(c3ccccc3)CC2)cc1 | 5.49
14 | Cc1ccc(S(=O)(=O)N2CCC(C)CC2)cc1 | 14
15 | Cn1c2c(c(=O)n1-c1ccccc1)CSCC2 | 13.3
16 | Cc1cc(C)n2nc(C(=O)OCC(=O)N(CC(C)C)CC(C)C)nc2n1 | 8.64
17 | O=C(NC1CCCCC1)NC1CCN(S(=O)(=O)Cc2ccccc2)CC1 | 4.63
18 | COc1cccc(NC(=O)COc2cccc3c2CCNC3=O)c1 | 7.53
19 | O=C1CN=C(c2ccccc2F)c2cc(Cl)ccc2N1 | 2.9
20 | Cc1nn(-c2ccccc2)c(C)c1NC(=O)COC(=O)c1ccccc1 | 11.2
21 | CCOC(=O)c1ccccc1NS(=O)(=O)c1c(C)nc2sccn2c1=O | 6.14
22 | CCC1(C)Cc2c(sc3nc4n(c(=O)c23)CCS4)CO1 (stereo not drawn) | -1.79
23 | COc1ccc(OC)c(N(CC(=O)N2CCCC2)S(=O)(=O)c2ccccc2)c1 | 7.34

Row | SMILES | hERG current change (%, negative = inhibition) at 1uM [%]
24 | OCCNC(=S)NCCc1ccccc1 | 9.19
25 | Cc1oc(C(C)(C)C)cc1C(=O)N1CCCC1C(=O)O (stereo not drawn) | 9.18
26 | COc1cccc(CN(C)CC(=O)NCc2ccc(C)cc2)c1.O=C(O)C(=O)O | -18.3
27 | O=C1CCN(S(=O)(=O)c2ccccc2)CCN1CCOCc1ccc(F)cc1 | 7.79
28 | CCCc1nnc(NC(=O)CCC(=O)N2CCN(c3nc(C)cc(C)n3)CC2)s1 | 11.2
29 | COc1nc(OC)nc(N2CCC(C(=O)NC3CC3)CC2)n1 | 22.2
30 | Cc1ccc(CSc2nnc(-c3ccccc3N)c(=O)[nH]2)cc1 | 22.5
31 | CC(OC(=O)/C=C/c1ccccc1)C(=O)N1CCc2ccccc21 (stereo not drawn) | 8.92
32 | CCOC(=O)c1cn2c(C)cccc2n1 | 8.3
33 | Cn1c(/C=N/n2cnnc2)nc2ccccc21 | 9.31
34 | CSCCC(NS(=O)(=O)c1ccc2ccccc2c1)C(=O)O (stereo not drawn) | 17.5
35 | O=C(Nc1ccc(Br)cc1)C1CCCN1S(=O)(=O)c1cccs1 (stereo not drawn) | 13.6
36 | CCSC1=N/C(=C\c2ccc(C)s2)C(=O)S1 | 6.16
37 | CN(Cc1ccccc1)C(=O)c1nc[nH]c1C(=O)N1CCc2ccccc2C1 | 19.7
38 | O=c1cc(-c2ccc(O)cc2)oc2ccccc12 | 15
39 | O=C(O)c1ccc(Cn2cnc3cccnc32)cc1 | 17.6
40 | CCOC(=O)[C@H]1[C@H]2COc3ccccc3[C@@H]2N2C(=O)c3cc(Br)ccc3NC(=O)[C@@]12C | 3.07
41 | COc1ccc(CCCC(=O)NC2CCCCC2C)c(C)c1 (stereo not drawn) | 4.6
42 | Cc1cccc(NC(=O)c2ccc(S(=O)(=O)N3CCCCCC3)cc2)n1 | 7.3
43 | Oc1oc(-c2ccccc2)nc1C=Nc1cccc2ccccc12 | -5.64
44 | CCOC(=O)C1CCCN(S(=O)(=O)Cc2ccccc2)C1 (stereo not drawn) | 12.8
45 | CC(NCc1ccc2c(c1)OCO2)C(=O)N1CCc2ccccc21 (stereo not drawn) | 3.4
